Data taken from article PMC8844414.
Where two headings read alike, the source gives them in different places. These are yes or no findings as the source states them, for the method shown. Binding seen in cells or lysates may run through a third protein. Some results given as binding are weak or reduced against the parent protein; the word gives no strength.

Amino acid sequences for entries named in this document (tags omitted).
UniProt Q86U86: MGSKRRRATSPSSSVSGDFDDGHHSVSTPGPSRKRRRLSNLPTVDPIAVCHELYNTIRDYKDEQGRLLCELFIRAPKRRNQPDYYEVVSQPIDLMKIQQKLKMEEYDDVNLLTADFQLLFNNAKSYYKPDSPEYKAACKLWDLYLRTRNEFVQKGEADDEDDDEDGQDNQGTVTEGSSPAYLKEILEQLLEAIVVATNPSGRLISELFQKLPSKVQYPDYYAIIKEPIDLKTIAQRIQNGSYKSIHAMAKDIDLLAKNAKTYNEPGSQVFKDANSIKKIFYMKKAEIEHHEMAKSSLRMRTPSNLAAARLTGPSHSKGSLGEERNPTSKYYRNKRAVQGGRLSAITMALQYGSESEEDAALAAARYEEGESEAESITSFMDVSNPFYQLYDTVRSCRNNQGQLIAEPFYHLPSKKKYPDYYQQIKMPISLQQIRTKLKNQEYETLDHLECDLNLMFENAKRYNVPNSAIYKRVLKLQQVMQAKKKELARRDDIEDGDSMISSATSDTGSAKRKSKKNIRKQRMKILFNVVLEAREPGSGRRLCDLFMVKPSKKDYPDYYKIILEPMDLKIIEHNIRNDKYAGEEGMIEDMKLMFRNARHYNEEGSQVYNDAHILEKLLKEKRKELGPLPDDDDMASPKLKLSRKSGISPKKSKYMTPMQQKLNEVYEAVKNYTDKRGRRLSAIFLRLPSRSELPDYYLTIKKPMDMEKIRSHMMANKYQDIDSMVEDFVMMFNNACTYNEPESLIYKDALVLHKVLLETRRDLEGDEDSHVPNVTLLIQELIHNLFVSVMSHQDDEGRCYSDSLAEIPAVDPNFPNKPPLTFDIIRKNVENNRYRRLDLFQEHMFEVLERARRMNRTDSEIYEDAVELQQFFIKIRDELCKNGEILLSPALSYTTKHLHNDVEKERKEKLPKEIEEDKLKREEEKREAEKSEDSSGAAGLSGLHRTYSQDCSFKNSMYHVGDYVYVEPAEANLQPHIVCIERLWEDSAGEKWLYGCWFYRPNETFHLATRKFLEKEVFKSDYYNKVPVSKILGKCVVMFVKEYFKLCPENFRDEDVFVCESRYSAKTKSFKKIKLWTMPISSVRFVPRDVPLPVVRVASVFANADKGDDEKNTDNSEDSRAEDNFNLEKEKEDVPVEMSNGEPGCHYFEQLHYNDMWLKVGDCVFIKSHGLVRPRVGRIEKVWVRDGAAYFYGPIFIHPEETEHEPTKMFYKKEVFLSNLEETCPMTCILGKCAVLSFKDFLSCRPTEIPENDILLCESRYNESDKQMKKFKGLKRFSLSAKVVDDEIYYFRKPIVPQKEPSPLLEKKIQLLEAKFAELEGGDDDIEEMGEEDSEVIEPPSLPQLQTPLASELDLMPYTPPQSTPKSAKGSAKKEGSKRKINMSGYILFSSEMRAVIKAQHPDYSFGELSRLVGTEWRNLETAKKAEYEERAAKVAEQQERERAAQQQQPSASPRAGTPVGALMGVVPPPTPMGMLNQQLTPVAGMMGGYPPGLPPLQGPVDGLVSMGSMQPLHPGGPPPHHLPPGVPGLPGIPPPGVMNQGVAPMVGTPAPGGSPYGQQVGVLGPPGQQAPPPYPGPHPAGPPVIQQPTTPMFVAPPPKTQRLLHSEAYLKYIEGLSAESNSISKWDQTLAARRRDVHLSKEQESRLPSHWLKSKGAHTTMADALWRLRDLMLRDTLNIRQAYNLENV
UniProt P51532: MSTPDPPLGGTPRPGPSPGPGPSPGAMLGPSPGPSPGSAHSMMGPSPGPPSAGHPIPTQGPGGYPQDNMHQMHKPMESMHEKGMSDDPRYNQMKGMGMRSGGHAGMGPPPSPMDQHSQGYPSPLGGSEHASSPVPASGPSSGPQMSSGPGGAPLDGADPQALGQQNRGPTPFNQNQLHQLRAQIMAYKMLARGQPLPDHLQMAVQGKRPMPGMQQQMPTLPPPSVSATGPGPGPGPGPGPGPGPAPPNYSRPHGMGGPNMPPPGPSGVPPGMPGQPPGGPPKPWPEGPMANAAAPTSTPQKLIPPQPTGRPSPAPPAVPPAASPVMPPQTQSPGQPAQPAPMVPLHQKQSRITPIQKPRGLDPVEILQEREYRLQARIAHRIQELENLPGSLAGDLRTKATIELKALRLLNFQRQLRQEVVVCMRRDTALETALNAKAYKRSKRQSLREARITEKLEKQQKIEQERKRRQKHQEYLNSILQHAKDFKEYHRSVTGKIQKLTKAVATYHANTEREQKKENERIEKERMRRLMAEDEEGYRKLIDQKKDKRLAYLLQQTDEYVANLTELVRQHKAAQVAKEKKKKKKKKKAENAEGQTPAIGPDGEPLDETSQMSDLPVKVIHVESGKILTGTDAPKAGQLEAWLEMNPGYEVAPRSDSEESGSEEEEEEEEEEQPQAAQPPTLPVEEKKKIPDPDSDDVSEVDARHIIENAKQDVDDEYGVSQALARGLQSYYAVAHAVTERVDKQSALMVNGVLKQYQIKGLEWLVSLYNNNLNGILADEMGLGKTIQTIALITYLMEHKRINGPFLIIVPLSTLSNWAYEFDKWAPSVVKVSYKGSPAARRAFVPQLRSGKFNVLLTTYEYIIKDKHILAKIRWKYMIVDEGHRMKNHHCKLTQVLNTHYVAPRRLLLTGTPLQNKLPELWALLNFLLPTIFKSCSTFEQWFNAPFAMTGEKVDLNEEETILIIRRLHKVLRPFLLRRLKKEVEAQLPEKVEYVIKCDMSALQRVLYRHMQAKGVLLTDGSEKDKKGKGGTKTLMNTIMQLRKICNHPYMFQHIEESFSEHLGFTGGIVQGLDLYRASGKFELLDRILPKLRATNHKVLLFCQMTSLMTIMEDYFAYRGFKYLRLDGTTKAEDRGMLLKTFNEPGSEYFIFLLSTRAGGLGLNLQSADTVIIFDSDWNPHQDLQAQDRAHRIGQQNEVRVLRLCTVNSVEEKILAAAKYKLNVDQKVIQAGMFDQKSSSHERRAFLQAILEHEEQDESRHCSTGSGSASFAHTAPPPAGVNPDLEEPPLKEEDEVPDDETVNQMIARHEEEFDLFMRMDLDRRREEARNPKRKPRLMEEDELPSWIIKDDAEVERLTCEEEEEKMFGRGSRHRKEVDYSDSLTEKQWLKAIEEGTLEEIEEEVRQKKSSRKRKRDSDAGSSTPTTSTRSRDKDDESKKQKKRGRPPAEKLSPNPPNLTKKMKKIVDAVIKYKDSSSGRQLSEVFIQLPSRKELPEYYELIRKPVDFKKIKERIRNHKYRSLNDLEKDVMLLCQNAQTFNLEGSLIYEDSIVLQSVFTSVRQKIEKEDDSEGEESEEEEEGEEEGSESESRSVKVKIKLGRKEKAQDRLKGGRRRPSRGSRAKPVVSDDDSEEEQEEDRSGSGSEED
UniProt Q92785: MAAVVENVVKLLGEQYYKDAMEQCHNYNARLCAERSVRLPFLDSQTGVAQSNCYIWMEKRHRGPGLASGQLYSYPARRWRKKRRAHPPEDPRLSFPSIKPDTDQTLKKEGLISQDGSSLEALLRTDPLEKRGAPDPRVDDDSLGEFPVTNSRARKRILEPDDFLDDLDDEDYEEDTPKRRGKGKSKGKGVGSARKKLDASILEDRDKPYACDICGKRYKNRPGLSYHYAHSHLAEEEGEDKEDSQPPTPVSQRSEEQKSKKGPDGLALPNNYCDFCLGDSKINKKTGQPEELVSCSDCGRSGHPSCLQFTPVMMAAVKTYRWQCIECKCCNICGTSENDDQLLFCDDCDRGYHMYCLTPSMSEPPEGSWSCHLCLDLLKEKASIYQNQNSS
UniProt Q969G3: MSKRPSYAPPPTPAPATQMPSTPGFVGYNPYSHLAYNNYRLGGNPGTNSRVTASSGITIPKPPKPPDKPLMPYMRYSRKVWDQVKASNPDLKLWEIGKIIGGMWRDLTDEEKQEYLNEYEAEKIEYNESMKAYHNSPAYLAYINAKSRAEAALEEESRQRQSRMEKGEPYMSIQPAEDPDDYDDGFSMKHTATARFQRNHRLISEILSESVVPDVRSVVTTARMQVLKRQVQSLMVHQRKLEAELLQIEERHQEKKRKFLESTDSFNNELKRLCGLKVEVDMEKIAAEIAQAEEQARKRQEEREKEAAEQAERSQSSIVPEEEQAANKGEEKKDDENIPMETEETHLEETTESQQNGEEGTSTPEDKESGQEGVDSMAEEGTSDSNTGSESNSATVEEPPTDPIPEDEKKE

Key:
Experiment in all cases: co-IP; lysates of HONE1, AGS or C666-1 cells in IP lysis buffer (50 mM Tris pH 7.4, 150 mM NaCl, 1% NP-40, 0.1% SDS); 1 µg primary antibody 2 h at room temperature, IP beads at 4 °C overnight; five washes with IP lysis buffer; detected by western blotting
[1] = biological target: PBRM1 (human (HONE1, AGS, C666-1 cells)) (UniProt Q86U86)
[2] = biological target: T1, FOXP1 (human (HONE1, AGS, C666-1 cells)) (UniProt Q9H334)
T1 sequence: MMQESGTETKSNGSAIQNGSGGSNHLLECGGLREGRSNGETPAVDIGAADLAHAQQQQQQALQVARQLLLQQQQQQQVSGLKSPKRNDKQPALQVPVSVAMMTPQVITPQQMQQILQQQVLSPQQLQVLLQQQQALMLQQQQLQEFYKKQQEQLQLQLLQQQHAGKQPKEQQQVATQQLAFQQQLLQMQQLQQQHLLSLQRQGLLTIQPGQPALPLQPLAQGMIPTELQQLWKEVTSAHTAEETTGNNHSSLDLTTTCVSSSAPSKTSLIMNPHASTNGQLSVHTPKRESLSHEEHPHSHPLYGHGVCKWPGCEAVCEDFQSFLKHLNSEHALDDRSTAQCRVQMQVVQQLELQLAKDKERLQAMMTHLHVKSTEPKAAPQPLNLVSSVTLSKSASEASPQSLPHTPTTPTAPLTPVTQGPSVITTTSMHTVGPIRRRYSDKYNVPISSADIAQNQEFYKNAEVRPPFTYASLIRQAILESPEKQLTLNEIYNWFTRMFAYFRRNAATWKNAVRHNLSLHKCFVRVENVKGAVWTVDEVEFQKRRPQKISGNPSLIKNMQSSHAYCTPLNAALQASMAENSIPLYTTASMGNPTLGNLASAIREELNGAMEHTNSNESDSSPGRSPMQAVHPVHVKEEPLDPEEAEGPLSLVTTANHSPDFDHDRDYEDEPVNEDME

[3] = biological target: PBRM1 (human (HONE1, AGS, C666-1 cells)) (UniProt Q86U86); remark: listed apart in the source
[4] = biological target: SMARCA4 (human (endogenous in HONE1, AGS, C666-1)) (UniProt P51532)
[5] = biological target: DPF2 (human (endogenous in HONE1, AGS, C666-1)) (UniProt Q92785)
[6] = biological target: SMARCE1 (human (endogenous in HONE1, AGS, C666-1)) (UniProt Q969G3)

Question: What does the source list for DPF2 (from UniProt Q92785 1-391)?
Answer: binding [1]: no binding; binding [2]: no binding

Question: With PBRM1 (from UniProt Q86U86 1-1689) as the molecule, how does the binding [2] read?
Answer: Its binding is “binds”.

Question: How did the binding [2] turn out when SMARCA4 (from UniProt P51532 1-1647) was run?
Answer: Its binding is “binds”.

Question: Which binding [2] does the source give for SMARCE1 (from UniProt Q969G3 1-411) here?
Answer: Its binding is “binds”.

B1: FOXP1 (protein, UniProt Q9H334 1-677)
chain: T1 sequence
Question: For B1, which binding [3] is on record?
Answer: Its binding is “binds”.

Question: And the binding [4]?
Answer: Its binding is “binds”.

Question: And the binding [5]?
Answer: Its binding is “no binding”.

Question: What about the binding [6] of the same molecule?
Answer: The binding was “binds”.
